The source gives no read counts; variants with many changes may rest on few reads.
B1: CPEB3 Ribozyme (parent)
chain: UAACAGGGGGCCACAGCAGAAGCGUUCACGUCGCAGCCCCUGUCAGAUUCUGGUGAAUCUGCGAAUUCUGCUGUAUAUCUC

Variants of: B1
Experiment: self-cleavage, relative activity (ratio to wild type); higher = more cleavage; in vitro, sequencing
Procedure, shortened: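 Relative activity compares each variant's cleaved/total read fraction with that of the unmutated ribozyme. To get these fractions, barcoded CPEB3 ribozyme libraries from rounds of error-prone PCR were transcribed with T7 RNA polymerase for 5 hours at 37°C and then given 15 min of DNase I treatment before EDTA was added. The RNAs were reverse transcribed with template switching and sequenced on Illumina, and DNA sequencing linked barcodes to variants. A minimum of 5 reads applied, and three batches were averaged.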

Row | Variant | self-cleavage
1 | A3G A5G C23U U69C U78C | 0.24
2 | A3G A5G C29U U41G | 0.16
3 | A3G A5G C38G A47G U69G U74C U80C | 0.07
4 | A3G A5G G9A A35U U54C A65G U74A | 0.27
5 | A3G A5G U25C A35U U72C | 0.66
6 | A3G A5G U25C A45G U49A U58C | 0.12
7 | A3G A5G U25C G33A U69C U72C | 0.22
8 | A3G A5G U25C U54A | 0.6
9 | A3G A5G U25G U69C | 0.06
10 | A3G A5G U26A A45G U51A G52U | 0.41
11 | A3G A5G U26C U67A | 0.06
12 | A3G A5G U31C A35C U69C | 0.45
13 | A3G A5G U41C C68G | 0.56
14 | A3G A5G U43A U74A | 1.05
15 | A3G A5G U49A | 0.49
16 | A3G A5G U49C U51A U78G | 0.2
17 | A3G A5G U51A U58C | 0.59
18 | A3G A5U A15G U51A U66C A77U U78C | 0.35
19 | A3G A5U A18G | 0.85
20 | A3G A5U A20G G30U U48C | 0.74
21 | A3G A5U A20U A35U U43A | 0.23

Row | Variant | self-cleavage
22 | A3G A5U A21G U26C U67C | 0.11
23 | A3G A5U A28G | 0.85
24 | A3G A5U A28U C32A A57G U67C | 0.09
25 | A3G A5U A64G U67C | 0.2
26 | A3G A5U A64G U72A | 0.78
27 | A3G A5U G6U C17U | 0.52
28 | A3G A5U G9A A28G U60A U67A | 0.36
29 | A3G A5U G9A U26A A28G U54C U80C | 0.06
30 | A3G A5U U31C A45C U67C | 0.24
31 | A3G A5U U41C A65G | 0.48
32 | A3G A5U U49C U80A | 0.72
33 | A3G A5U U58A | 0.46
34 | A3G A5U U67A | 0.68
35 | A3G A13C A35G A57U | 1.03
36 | A3G A13C G19C C39A C44A A47G A57G | 0.08
37 | A3G A13C G30C | 0.37
38 | A3G A13C U25C G42A U43C U66C U80C | 0.47
39 | A3G A13G A15G A21G C34U | 0.48
40 | A3G A13G A15G A56U | 0.32
41 | A3G A13G A15G U26C U76C U78A | 0.06
42 | A3G A13G A15U U41C | 0.83

Row | Variant | self-cleavage
43 | A3G A13G A18G C39A | 0.26
44 | A3G A13G A18U G33A U43C | 0.4
45 | A3G A13G A35U A56G | 0.53
46 | A3G A13G A45C U72C | 0.41
47 | A3G A13G A47U U54A A56G A57G U67A | 0.08
48 | A3G A13G A56U U80A | 0.81
49 | A3G A13G C14A U60C U69C | 0.1
50 | A3G A13G C17U U31C A47G U51G U66C | 0.25
51 | A3G A13G C23U G33A U43C U72C U76C | 0.07
52 | A3G A13G C27A G46U U80G | 0.2
53 | A3G A13G C27A U60C U69C | 0.26
54 | A3G A13G C29U A35U U43A U76A | 0.33
55 | A3G A13G C37A U69C | 0.16
56 | A3G A13G C38U G42A G73A U80A | 0.19
57 | A3G A13G C40A U43G U67C U69C U74C | 0.04
58 | A3G A13G G16C | 0.13
59 | A3G A13G G16C C32U C34U U51C U69A | 0.07
60 | A3G A13G G24A U76C | 0.46
61 | A3G A13G G30U A35C U49C | 0.06
62 | A3G A13G G33A | 0.55
63 | A3G A13G G33A C38U A56U A64G U66C | 0.1

Row | Variant | self-cleavage
64 | A3G A13G G61U | 0.52
65 | A3G A13G U25C | 0.68
66 | A3G A13G U25C G42A U54A U60A | 0.13
67 | A3G A13G U31A G46A U69C U72C U78C | 0.13
68 | A3G A13G U41A A47G U72C | 0.56
69 | A3G A13G U41A G55U U58C | 0.29
70 | A3G A13G U43A U78C | 1.03
71 | A3G A13G U54A A65G | 0.72
72 | A3G A13G U58A A65U U72A U74C | 0.18
73 | A3G A13G U72A | 0.57
74 | A3G A13G U74A | 1.09
75 | A3G A13G U76A | 1.05
76 | A3G A13U A18G A20G U26C | 0.69
77 | A3G A13U A18G A45U U51A A64G U80G | 0.24
78 | A3G A13U A20G C40U A65U | 0.09
79 | A3G A13U A20G G36C U43C U58C | 0.1
80 | A3G A13U A20G U31C A45G U49A | 0.61
81 | A3G A13U A21G G30A A47U | 0.01
82 | A3G A13U A28G | 0.8
83 | A3G A13U A28G A57G | 0.51
84 | A3G A13U A45G U54A | 1.05

Source: the RNAGym collection of RNA variant scans (doi:10.1093/nar/gkz1192)
